Paper PMC11840927, “Frataxin Traps Low Abundance Quaternary Structure to Stimulate Human Fe–S Cluster Biosynthesis” (Biochemistry, 2025)

What was measured:
[1] = target: T1, NFS1(Δ1–55) with N-terminal His6 tag (human, UniProt Q9Y697, covalently attached PLP); assay: native MS; protomer exchange: 1:1 mix of 15N- and 14N-labelled SDAec (or His-tagged and untagged IscS), room temperature, 200 mM ammonium acetate pH 8.5, EMR Orbitrap; ratio of exchanged dimer to the sum of unexchanged dimers; α2β2γ2 (or IscS dimer) to protomers and back; conditions: both partners purified
T1 construct: NFS1, human cysteine desulfurase, Δ1–55 (residues 56 to the C-terminus); The NFS1 chain of m1; also called α subunit; source: recombinant, co-purified within the SDAec complex; not shown: His6, N-terminal, kept
T1 sequence (Q9Y697 56-457, stated change not applied): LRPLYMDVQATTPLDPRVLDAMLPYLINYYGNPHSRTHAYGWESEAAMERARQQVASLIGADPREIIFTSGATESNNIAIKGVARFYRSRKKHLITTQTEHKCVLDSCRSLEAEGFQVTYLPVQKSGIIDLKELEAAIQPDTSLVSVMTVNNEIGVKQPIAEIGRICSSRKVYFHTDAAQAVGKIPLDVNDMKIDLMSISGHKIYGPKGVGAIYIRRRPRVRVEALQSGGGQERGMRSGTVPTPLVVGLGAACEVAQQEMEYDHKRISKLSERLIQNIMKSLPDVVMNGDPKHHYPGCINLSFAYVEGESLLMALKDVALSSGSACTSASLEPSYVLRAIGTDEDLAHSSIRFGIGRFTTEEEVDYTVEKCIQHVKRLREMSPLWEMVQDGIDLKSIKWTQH

[2] = target: the molecule itself; assay: as above

B1: ISD11(S11A) (natural protein)
chain: not shown
notes: ISD11 (LYRM superfamily), human, S11A; The ISD11 chain of m1; also called β subunit; source: recombinant, co-purified within the SDAec complex
binding result [1]: binds

B2: NFS1(Δ[…])-ISD11(S11A)-ACPec complex with the His6 tag on NFS1 cleaved by TEV protease (complex)
chain 1: [about 400 residues with changes omitted]
chain 2: [about 100 residues with changes omitted]
chain 3: MSTIEERVKKIIGEQLGVKQEEVTNNASFVEDLGADSLDTVELVMALEEEFDTEIPDEEAEKITTVQAAIDYINGHQA
modifications: covalently attached PLP | acyl-4′PPT (assumed mass 523 Da)
notes: single glycine residue before residue 56 left after TEV cleavage; NFS1, human cysteine desulfurase, Δ[…] (residues 56 to the C-terminus); ISD11 (LYRM superfamily), human, S11A; Escherichia coli acyl-carrier protein (ACPec) associated with NFS1-ISD11; A TEV site was introduced by mutagenesis into the original NFS1 plasmid; also called untagged SDAec; cleaved SDAec; not shown: His6, N-terminal, …
exchanged-to-unexchanged ratio at 24 h [2]: 0.79
